Data reported in PubChem BioAssay (NCATS).
Several values for one entry are separate records, joined by “and”; a condition that tells them apart may be missing. Equal entries are not always repeated. The inconclusive results got no clear call from the source; some entries with a clear call stand among them for comparison. Potencies beside an inconclusive call are fits to weak or partial responses and may not hold up. Activity calls are given as the source filed them. The call rests on the fitted dose curve; in most records, active means well fitted curve in the direction sought with a large enough effect; inconclusive means small, poorly fitted or top-dose-only effect, or another doubt; inactive means no such curve, though single readings can be large; an effect the other way counts as inactive or inconclusive.

How the values were obtained:
[1] = system: MCC-13; assay: qHTS assay to identify novel small-molecules to repurpose for Merkel cell carcinoma treatment (AID 1296009); conditions: MCC and control cell lines, CellTiter-Glo viability, 72 h; series mostly up to 46 µM; further: nearly all actives have a fitted effect of over 60% in size
Summary of the method: (§1)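 Cells were treated for 72 hr at 37 degree celsius with compounds in 8- or 11-point dose response. Viability was read by CellTiter-Glo luminescence, normalized to no-cell (cytotoxicity) and DMSO controls.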

[2] = system: UISO; assay: as above; conditions: MCC and control cell lines, CellTiter-Glo viability, 72 h; activity change, negative = cytotoxicity: at 46 µM (top of the series) unless noted
Summary of the method: as §1

[3] = system: C33A; assay: Primary qHTS to identify gynecologic anti-cancer compounds using libraries of approved drugs and bioactive compounds (AID 1345084); conditions: Gynecologic cancer cell panel viability, ATPlite luminescence, 48 h; series mostly up to 57.5 µM; further: nearly all actives have a fitted effect of over 55% in size
Summary of the method: (§2)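 48 h compound exposure at 37 C, 5% CO2; five-point qHTS. ATPlite luminescence readout of cell ATP.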

[4] = system: CAOV3; assay: as above; conditions: Gynecologic cancer cell panel viability, ATPlite luminescence, 48 h; series mostly up to 57.5 µM
Summary of the method: as §2

[5] = system: CASKI; assay: as above; conditions: Gynecologic cancer cell panel viability, ATPlite luminescence, 48 h; series mostly up to 57.5 µM
Summary of the method: as §2

[6] = system: Hek293T; assay: as above; conditions: Gynecologic cancer cell panel viability, ATPlite luminescence, 48 h, control line for the selectivity index; series mostly up to 57.5 µM
Summary of the method: as §2

[7] = system: JEG-3; assay: as above; conditions: Gynecologic cancer cell panel viability, ATPlite luminescence, 48 h; series mostly up to 57.5 µM
Summary of the method: as §2

[8] = system: OV90; assay: as above; conditions: Gynecologic cancer cell panel viability, ATPlite luminescence, 48 h; series mostly up to 57.5 µM
Summary of the method: as §2

[9] = system: SC27B; assay: qHTS profiling for inhibitors of Plasmodium falciparum proliferation (AID 504749); further: nearly all actives have a fitted effect of over 60% in size; conditions: P. falciparum in erythrocytes, SYBR Green DNA, 72 h; series mostly up to 28.7 µM
Summary of the method: (§3)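 P. falciparum-infected erythrocytes (0.3% parasitemia, 2.5% hematocrit) incubated with compound 72 h at 37 C, 5% CO2. Parasite DNA detected by SYBR Green after lysis, overnight at room temperature; normalised to 0.29 uM artemisinin and DMSO.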

[10] = system: TAB109; assay: as above; conditions: P. falciparum in erythrocytes, SYBR Green DNA, 72 h; series mostly up to 28.7 µM
Summary of the method: as §3

[11] = system: TAB113; assay: as above; conditions: P. falciparum in erythrocytes, SYBR Green DNA, 72 h; series mostly up to 28.7 µM
Summary of the method: as §3

[12] = system: TAB165; assay: as above; conditions: P. falciparum in erythrocytes, SYBR Green DNA, 72 h; series mostly up to 28.7 µM
Summary of the method: as §3

[13] = system: MKL-2; assay: qHTS assay to identify novel small-molecules to repurpose for Merkel cell carcinoma treatment (AID 1296009); conditions: MCC and control cell lines, CellTiter-Glo viability, 72 h; series mostly up to 46 µM; further: nearly all actives have a fitted effect of over 60% in size
Summary of the method: as §1

[14] = system: Es-2; assay: Primary qHTS to identify gynecologic anti-cancer compounds using libraries of approved drugs and bioactive compounds (AID 1345084); conditions: Gynecologic cancer cell panel viability, ATPlite luminescence, 48 h; series mostly up to 57.5 µM; further: nearly all actives have a fitted effect of over 55% in size
Summary of the method: as §2

[15] = system: HeLa; assay: as above; conditions: Gynecologic cancer cell panel viability, ATPlite luminescence, 48 h; series mostly up to 57.5 µM
Summary of the method: as §2

[16] = system: MKL-1; assay: qHTS assay to identify novel small-molecules to repurpose for Merkel cell carcinoma treatment (AID 1296009); conditions: MCC and control cell lines, CellTiter-Glo viability, 72 h; activity change, negative = cytotoxicity: at 46 µM (top of the series) unless noted; further: nearly all actives have a fitted effect of over 60% in size
Summary of the method: as §1

[17] = system: MCC-26; assay: as above; conditions: MCC and control cell lines, CellTiter-Glo viability, 72 h; series mostly up to 46 µM
Summary of the method: as §1

[18] = system: WaGa; assay: as above; conditions: MCC and control cell lines, CellTiter-Glo viability, 72 h; series mostly up to 46 µM
Summary of the method: as §1

[19] = system: W2; assay: qHTS profiling for inhibitors of Plasmodium falciparum proliferation (AID 504749); further: nearly all actives have a fitted effect of over 60% in size; conditions: P. falciparum in erythrocytes, SYBR Green DNA, 72 h; series mostly up to 28.7 µM
Summary of the method: as §3

[20] = system: PC49; assay: as above; conditions: P. falciparum in erythrocytes, SYBR Green DNA, 72 h; series mostly up to 28.7 µM
Summary of the method: as §3

Measured: Potency
Potency means the concentration at half of the fitted maximal effect; tags describe the fitted curve by direction and shape.

Cc1ccc([N+](=O)[O-])[c]2c1[O][Hg]2
active: [1] 2.11 µM | [2] 0.335 µM | [3] 4.47 µM | [4] 6.31 µM | [5] 7.94 µM | [6] 5.62 µM | [7] 3.55 µM | [8] 12.6 µM

CC[n+]1c(-c2ccccc2)c2cc(N)ccc2c2ccc(N)cc21
inconclusive: [1] 29.9 µM [inhibitor, single point] | [14] 25.1 µM [cytotoxic, single point] | [15] 10 µM [cytotoxic, partial curve, poor fit] | [6] 14.1 µM [cytotoxic, partial curve, poor fit] | [7] 12.6 µM [cytotoxic, partial curve, poor fit]
active: [9] 126 nM and 355 nM | [10] 70.8 nM and 158 nM | [11] 100 nM and 316 nM | [12] 17.8 nM and 224 nM | [13] 0.944 µM | [3] 1.12 µM | [4] 12.6 µM | [5] 20 µM | [8] 14.1 µM

CCN1CCN(C(=O)Cc2ccc(Nc3ncc(F)c(Nc4ccc(C(=O)Nc5ccccc5Cl)cc4)n3)cc2)CC1
inconclusive: [1] 8.33 µM [inhibitor, partial curve] | [16] 10.5 µM [inhibitor, partial curve] | [2] 3.32 µM [inhibitor, full curve] | [4] 39.8 µM [cytotoxic, single point] | [14] 35.5 µM [cytotoxic, single point]
active: [15] 8.91 µM | [6] 25.1 µM

O=C(O)CCCCCCNC1c2ccccc2CCc2ccccc21
inactive: [1] | [3]
inconclusive: [2] 11.9 µM [inhibitor, partial curve]

c1ccc2c(c1)Nc1ccccc1S2
inconclusive: [10] 7.94 µM [inhibitor, partial curve] | [12] 7.94 µM [inhibitor, partial curve]
inactive: [1] | [6]

C=CCN1CC[C@]23CCCC[C@H]2[C@H]1Cc1ccc(O)cc13
inactive: [1]
inconclusive: [8] 25.1 µM [cytotoxic, partial curve, poor fit]

CCN1C[C@]2(OC(=O)c3ccccc3NC(C)=O)CC[C@H](OC)[C@@]34[C@H]5CC6[C@@H](OC)C[C@](O)(C(C[C@@H]23)[C@@H]14)[C@@]5(O)[C@@H]6OC
inactive: [17]

O=c1[nH]c2ccc(Cl)cc2c(N[C@@H]2CN3CCC2CC3)c1-c1nc2ccccc2[nH]1
active: [17] 7.43 µM | [16] 0.743 µM | [13] 2.64 µM | [2] 5.9 µM | [18] 1.48 µM | [5] 10 µM | [14] 0.447 µM | [15] 3.16 µM
inconclusive: [4] 11.2 µM [cytotoxic, partial curve, poor fit] | [6] 0.141 µM [cytotoxic, full curve, poor fit] | [7] 3.55 µM [cytotoxic, partial curve, poor fit]

COC1(CS(=O)c2ccccc2)CCN(CCc2c[nH]c3ccc(F)cc23)CC1 (stereo not given)
inactive: [17]

CCOC(=O)C(c1c(O)c2ccccc2oc1=O)c1c(O)c2ccccc2oc1=O
inactive: [17]

O=c1[nH]c2ccccc2n1C1CCNCC1
inactive: [1] | [8]

CC=C(C)C(=O)O[C@H]1C(C)=C2[C@@H]3OC(=O)[C@@](C)(O)[C@@]3(O)[C@@H](OC(=O)CCC)C[C@](C)(OC(C)=O)[C@@H]2[C@@H]1OC(=O)CCCCCCC
active: [17] 1.32 µM

N[C@@H](Cc1ccc(N(CCCl)CCCl)cc1)C(=O)O
inactive: [7]
active: [12] 11.2 µM | [19] 6.75 µM | [2] 13.3 µM and 13.2 µM
inconclusive: [9] 10 µM [inhibitor, single point] | [10] 12.6 µM [inhibitor, single point] | [11] 8.91 µM [inhibitor, single point] | [1] 15 µM [inhibitor, partial curve] and 10.5 µM [inhibitor, partial curve] | [4] 39.8 µM [cytotoxic, single point] | [5] 31.6 µM [cytotoxic, single point] | [14] 39.8 µM [cytotoxic, single point] | [8] 25.1 µM [cytotoxic, single point]

O=C1OC(CCN2CCCCC2)OC1(c1ccccc1)c1ccccc1 (stereo not given)
active: [16] 21.1 µM
inactive: [4]
inconclusive: [1] 33.5 µM [inhibitor, single point] | [2] 33.5 µM [inhibitor, single point]

CCC(=O)C(CCN(C)C)(c1ccccc1)c1ccccc1
inconclusive: [13] 29.9 µM [inhibitor, single point] | [18] 23.7 µM [inhibitor, single point]
inactive: [1] | [14] | [8]

C=CCN1C[C@H](C)N([C@H](c2ccc(C(=O)N(CC)CC)cc2)c2cccc(OC)c2)C[C@H]1C
inactive: [1] | [13] | [2]
inconclusive: [20] 4.47 µM [inhibitor, partial curve] | [10] 12.6 µM [inhibitor, single point] | [11] 10 µM [inhibitor, single point] | [12] 11.2 µM [inhibitor, single point]

CCOC(=O)c1c(C(C#N)=CN)c2ccc(Cl)c(Cl)c2n1C
inactive: [1] | [13]

CN(C)CCc1c[nH]c2cccc(O)c12
inconclusive: [2] 67.9 µM [inhibitor, single point] | [18] 27 µM [inhibitor, partial curve]
inactive: [1]

CN1C(=O)CN=C(c2ccccc2)c2cc(Cl)ccc21
inconclusive: [1] 4.22 µM [inhibitor, single point] | [4] 39.8 µM [cytotoxic, single point]

Clc1ccc(CSC(Cn2ccnc2)c2ccc(Cl)cc2Cl)cc1 (stereo not given)
inconclusive: [1] 26.6 µM [inhibitor, single point] | [3] 14.1 µM [cytotoxic, partial curve, poor fit] | [4] 39.8 µM [cytotoxic, single point] | [6] 22.4 µM [cytotoxic, single point] | [8] 12.6 µM [cytotoxic, partial curve, poor fit]

COC1=CC(C)=C[C@@H](C)[C@@H](O)[C@@H](C)CC(C)=CC=C[C@H](OC)[C@H]([C@@H](C)[C@@H](O)[C@H](C)[C@@]2(O)C[C@@H](O)[C@H](C)[C@@H](C(C)C)O2)OC1=O
active: [17] 4.69 µM | [16] 0.118 µM

Cc1[nH]nc2ccc(-c3cncc(OC[C@@H](N)Cc4c[nH]c5ccccc45)c3)cc12
inconclusive: [16] 2.64 µM [inhibitor, full curve]
active: [1] 2.35 µM | [18] 0.833 µM | [3] 0.316 µM | [4] 1.12 µM | [5] 2.82 µM | [14] 1.78 µM | [6] 0.631 µM | [7] 2.82 µM

CC[C@]1(O)CC[C@H]2[C@@H]3CCC4=CCCC[C@@H]4[C@H]3CC[C@@]21C
inconclusive: [9] 15.8 µM [inhibitor, single point] | [11] 3.98 µM [inhibitor, partial curve] | [12] 2.51 µM [inhibitor, single point] | [19] 19 µM [inhibitor, partial curve, poor fit] | [1] 26.6 µM [inhibitor, single point] | [2] 16.8 µM [inhibitor, single point] | [3] 39.8 µM [cytotoxic, single point] | [4] 0.562 µM | [14] 39.8 µM [cytotoxic, partial curve, poor fit] | [15] 15.8 µM [cytotoxic, partial curve, poor fit] | [6] 39.8 µM [cytotoxic, single point] | [8] 39.8 µM [cytotoxic, single point]

NN=C(N)N
inactive: [12] | [19] | [1] | [5] | [8]

CC(C)[C@H]1C(=O)N[C@H](CO)Cc2c[nH]c3cccc(c23)N1C
inactive: [1]
inconclusive: [2] 2.09 µM [inhibitor, partial curve]

C[C@]12C=CC(=O)C=C1CC[C@@H]1[C@@H]2CC[C@@]2(C)[C@H]1CC[C@]2(C)O
inactive: [20] | [11] | [1] | [13]
inconclusive: [4] 8.91 µM [rising, single point]

CC[C@@H](CO)NC(=O)[C@@H]1C=C2c3cccc4c3c(cn4C)C[C@H]2N(C)C1
inconclusive: [13] 23.7 µM [inhibitor, single point] | [2] 33.5 µM [inhibitor, single point] | [18] 29.9 µM [inhibitor, single point]
inactive: [1]

Cc1nc(-c2ccc(-c3ccc(C(=O)N4CCc5cc6c(cc54)C4(CCN(C)CC4)CO6)cc3)c(C)c2)no1
inconclusive: [17] 37.2 µM [inhibitor, partial curve, poor fit]
